This is one part of the list. At the low end of the ranking, values are background and their order means little.

The assay concerns T1, GST-NbGlk1(82-244).
T1 sequence: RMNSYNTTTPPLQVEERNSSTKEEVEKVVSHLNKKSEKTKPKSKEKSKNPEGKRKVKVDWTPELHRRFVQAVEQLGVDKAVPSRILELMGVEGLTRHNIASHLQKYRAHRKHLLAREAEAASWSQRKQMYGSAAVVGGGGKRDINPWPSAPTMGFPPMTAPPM
Description: protein-binding microarray.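 Note: rank-based score ranging −0.5 to +0.5 with E above 0.45 taken as significant binding.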 The settings on record: NbGlk1 is a Golden2-like transcription factor of Nicotiana benthamiana; high values mean tight binding; most listed sequences are background and not binding sites; double strand, one strand shown.
The sequence ATCGAGCA showed a binding signal of 0.0859 E-score.
As for AAAACGGC, the figure is -0.102 E-score; as for AGCTTGTG, -0.215 E-score.
For AAAATCAT the value was 0.302 E-score; for ACTACACC, -0.0911 E-score; for AACAGCCG, -0.229 E-score.
For ATATTTTA the value was 0.311 E-score.
ACCGACCC returned a binding signal of -0.251 E-score.
As for AAGTTTTA, the figure is 0.051 E-score; as for ATAATACG, 0.123 E-score; as for ACGTATCC, 0.292 E-score.
As for AAGTGAGG, the figure is -0.0645 E-score; as for AGTTGAGA, 0.08 E-score.
For AAGGCGCT the value was -0.147 E-score; for ATTACATG, 0.293 E-score.
Turning to AGAATGCC, the binding signal is -0.231 E-score.
Regarding AAGATAGG, the binding signal turned out to be 0.0264 E-score.
For AGCGTCGA the value was -0.0694 E-score.
The sequence ACGCACCC displayed a binding signal of -0.138 E-score.
Take ATGACCAA: the binding signal is -0.0544 E-score.
For ATCCGGAA the value was 0.332 E-score; for ACACTCGT, -0.123 E-score; for AGACAACA, -0.122 E-score.
Sequence AGGCATCA showed a binding signal of 0.065 E-score.
ACGAAACG displayed a binding signal of 0.00984 E-score.
Regarding ACAGTACC, the binding signal was -0.0837 E-score.
For ACCTTGCG the value was -0.0467 E-score.
Sequence ACTATGTA yielded a binding signal of 0.0595 E-score.
As for AATCGTCG, the figure is 0.322 E-score; as for AGAGATCG, 0.303 E-score; as for ACTACATA, -0.00843 E-score.
For AGACGGCA the value was -0.145 E-score.
For ACCGAGAA the value was 0.0135 E-score; for AGAAAACA, 0.0163 E-score.
In turn, ATAATTAA had a binding signal of 0.0602 E-score.
As to AAGATTTG, the binding signal is 0.393 E-score.
As for AGGTAGGG, the figure is -0.0834 E-score; as for ATAGTATC, 0.158 E-score.
For ATGATAGG the value was -0.057 E-score.
As for ACACCATC, the figure is -0.115 E-score; as for ATCGATAA, 0.144 E-score.
Sequence ATGCGCTA returned a binding signal of 0.0334 E-score.
For CAGCAACG the value was -0.167 E-score; for AGCTAGCG, -0.143 E-score.
For AAAAGAGC the value was -0.092 E-score; for AAACCTCA, -0.146 E-score.
With AAAGTCAT, the binding signal was -0.0932 E-score.
As for ACTCGGAA, the figure is -0.0244 E-score.
For AAAAAATA the value was 0.193 E-score.
For ACACCTCA the value was -0.00513 E-score; for AAAAAGTA, -0.0658 E-score; for AAGAGTGG, -0.136 E-score.
With AGGGCCTC, the binding signal was -0.215 E-score.
As for AACAACTA, the figure is 0.14 E-score; as for AAGTCGTC, -0.148 E-score; as for AGCTAGAC, -0.176 E-score.
As for AACTACTG, the figure is 0.118 E-score; as for AGGTTATG, -0.155 E-score; as for AAGGAGGC, -0.299 E-score.
As to AGTCGGAA, the binding signal was -0.0961 E-score.
For AGAACGTG the value was -0.014 E-score; for AGTTGCCA, -0.202 E-score.
As for AGAATGAC, the figure is -0.0922 E-score; as for ATCGTAGG, 0.0991 E-score; as for AGACCACG, -0.279 E-score.
AGACCCGA gave a binding signal of -0.215 E-score.
As for ATTACCAC, the figure is 0.255 E-score.
As for ATCCCCTA, the figure is 0.276 E-score; as for AGTCGGAC, -0.0438 E-score; as for ACATGAGC, -0.0676 E-score.
For ACTTTAAC the value was 0.0382 E-score; for ATATAGGC, -0.0319 E-score; for ACAATAGC, 0.0546 E-score.
ACGTGACT: the binding signal was -0.142 E-score.
For ATCCGCCC the value was 0.197 E-score.
For ACAGGCTA the value was -0.0619 E-score; for ATTTATTG, 0.216 E-score; for AGTTCTTC, -0.101 E-score.
As for AGGTTCAT, the figure is -0.169 E-score; as for ACAGTCTC, -0.273 E-score.
As for AGTGGATC, the binding signal was found to be 0.202 E-score.
As for ACCCGGTA, the figure is -0.141 E-score.
For CACGATTC the value was 0.371 E-score; for AGGTAGTG, -0.0573 E-score.
For AGACAATG the value was -0.0389 E-score; for AGGCGCTG, -0.0951 E-score; for AGGCCCGC, -0.191 E-score.
AGACGTTG came in with a binding signal of -0.113 E-score.
For AAGCAAAG the value was -0.153 E-score; for ATTAAGAG, 0.103 E-score; for ACATGCGC, -0.157 E-score.
Take CAAAACAA: the binding signal came to 0.0855 E-score.
As for CACAGGGA, the figure is 0.0183 E-score; as for ATCTCGTA, 0.376 E-score; as for AACGTCCG, -0.216 E-score.
As for CAAAACAG, the figure is 0.0913 E-score; as for AACAAGTC, -0.115 E-score; as for CACATAGC, -0.222 E-score.
AGATCGTG gave a binding signal of 0.339 E-score.
For AAGGAAGG the value was -0.182 E-score; for ATTCTTGA, 0.221 E-score; for ACCAGTGC, -0.188 E-score.
In the case of ATTCTATA, the binding signal was 0.284 E-score.
For ACCTATCC the value was -0.143 E-score; for ACGCCACA, -0.097 E-score.
Regarding CAACATAG, the binding signal was -0.0213 E-score.
For CACGTTAC the value was -0.0963 E-score; for ACCGAAGG, -0.075 E-score; for ATCCGAGA, 0.308 E-score.
In turn, AAGATGCT returned a binding signal of -0.0571 E-score.
As for ACTGACAG, the binding signal was -0.156 E-score.
For AGTTTTTG the value was 0.0244 E-score; for ACCGAACT, -0.194 E-score.
As for ATGTAATC, the figure is 0.462 E-score; as for AGCGCACT, -0.115 E-score.
As for CACGAGAA, the figure is 0.0453 E-score.
In turn, CACTAACA yielded a binding signal of 0.0374 E-score.
On to CACTCTGA, for which the binding signal stood at 0.0301 E-score.
For ATTTAACG the value was 0.0836 E-score; for AACATCCT, -0.0858 E-score.
As for ACCCTCTG, the figure is -0.216 E-score; as for AACTTGAC, -0.0515 E-score.
As for CACACCGA, the figure is -0.0642 E-score; as for ACTCGTTA, -0.0219 E-score; as for AGCCAACT, -0.16 E-score.
The sequence CAGACGAA had a binding signal of -0.0401 E-score.
As for AAGCTGCT, the figure is -0.308 E-score; as for ATGGGATA, 0.243 E-score; as for ATCGAGGG, 0.0431 E-score.
As for AATTTAAC, the figure is 0.0456 E-score.
CAAAACCG: the binding signal was -0.0304 E-score.
For AAATAGTC the value was 0.0169 E-score; for ATTCCCCC, 0.37 E-score; for AGTGCTAC, -0.0787 E-score.
For AAGATGTA the value was 0.00254 E-score; for ACTCGCCA, -0.162 E-score.
For AAGTTTCG the value was -0.0252 E-score; for ACTGCCAG, -0.224 E-score; for ATGAGGCA, -0.194 E-score.
The sequence CAAGTTAG returned a binding signal of -0.0641 E-score.
As for AATACTGC, the figure is 0.0862 E-score; as for AAGTGACG, -0.0349 E-score; as for AGTTCGGA, -0.0277 E-score.
With AACGCCCC, the binding signal was -0.313 E-score.
Sequence AGACAAGC gave a binding signal of -0.161 E-score.
As for AGACTAAG, the figure is 0.0551 E-score; as for AACTTTTG, -0.161 E-score; as for AGGCGCCT, -0.256 E-score.
For AACCAGGG the value was -0.132 E-score; for ATACGGGA, 0.117 E-score; for AATTTACC, 0.155 E-score.
As for AGTCTCAC, the figure is -0.173 E-score.
ATGATTAA: the binding signal stood at 0.134 E-score.
For ACTAATGC the value was -0.113 E-score.
In turn, ACATATGC had a binding signal of -0.0342 E-score.
As for AATAGTAA, the figure is 0.208 E-score.
As for AGTAGGAG, the figure is -0.002 E-score.
For CACACATC the value was -0.116 E-score.
The sequence CACCGACG displayed a binding signal of -0.308 E-score.
As for ATGCAGTA, the figure is 0.0875 E-score.
As for ACTCCCCA, the figure is -0.198 E-score; as for AGGGGGTA, -0.209 E-score; as for CAATTGTA, 0.00564 E-score.
As for AGCCATCC, the figure is -0.23 E-score; as for AAAGTGCT, -0.161 E-score; as for CAAACGGC, -0.166 E-score.
Sequence AAAACTCC had a binding signal of -0.109 E-score.
Take AATCATAA: the binding signal is 0.285 E-score.
As for AGGTACAA, the figure is -0.0644 E-score; as for ATTGGAAC, 0.0354 E-score; as for ATGAACTA, -0.191 E-score.
As for AGGCGTCC, the figure is -0.249 E-score.

(Values after article PMC5836133.)
